Results reported in PubChem BioAssay AID588342 (National Center for Advancing Translational Sciences (NCATS), 2011).
About 25,000 (6.9%) of roughly 360,000 compounds were called active. The shares of active, inactive and inconclusive entries below differ from those in the screen. The call rests on the fitted dose curve; in most records, active means well fitted inhibition curve with a large enough effect; inconclusive means small, poorly fitted or top-dose-only effect; inactive means flat fitted curve, though single readings scatter. Where the call is inconclusive, the potency comes from a doubtful curve fit.

These compounds were tested against Luciferin 4-monooxygenase (Photinus pyralis) (UniProt P08659) (assay: qHTS profiling assay for firefly luciferase inhibitor/activator using purifed enzyme and Km concentrations of substrates (counterscreen for miR-21 project)). Details: purified FLuc, luminescence inhibition; series mostly up to 57.5 µM.
Outline: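 Biochemical qHTS of compounds, final roughly 60 µM downward over six points, against 10 nM purified firefly luciferase using Km concentrations of substrates (10 uM D-luciferin, 10 uM ATP) in Tris acetate pH 7.5 buffer; luminescence output.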
Further: nearly all actives have a fitted effect of over 55% in size.
Potency means the concentration at half of the fitted maximal effect; tags describe the fitted curve by direction and shape.

Chain of UniProt P08659 (P08659 whole entry, looked up): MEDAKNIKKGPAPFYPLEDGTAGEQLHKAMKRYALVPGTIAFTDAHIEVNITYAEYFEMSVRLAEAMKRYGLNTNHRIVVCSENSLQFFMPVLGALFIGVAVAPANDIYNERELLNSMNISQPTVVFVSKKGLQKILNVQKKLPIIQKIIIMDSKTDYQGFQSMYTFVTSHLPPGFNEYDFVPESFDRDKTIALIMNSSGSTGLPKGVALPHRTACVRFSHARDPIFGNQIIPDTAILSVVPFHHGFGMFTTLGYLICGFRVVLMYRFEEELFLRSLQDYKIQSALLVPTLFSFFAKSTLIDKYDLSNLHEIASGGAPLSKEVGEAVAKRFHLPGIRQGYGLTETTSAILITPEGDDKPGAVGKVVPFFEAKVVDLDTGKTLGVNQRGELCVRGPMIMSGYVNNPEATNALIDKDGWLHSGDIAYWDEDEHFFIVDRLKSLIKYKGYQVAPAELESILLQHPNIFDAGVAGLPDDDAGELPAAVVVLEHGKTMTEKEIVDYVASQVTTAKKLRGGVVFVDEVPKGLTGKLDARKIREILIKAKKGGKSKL

Compound | Potency
CN=c1scc(-c2ccccc2F)n1/N=C/c1ccc[nH]1 | active: 0.0269 µM
Fc1ccc(F)c(C2=NNC(=NCC3CCCO3)SC2)c1 (stereo unspecified) | inconclusive: 23.9 µM [inhibitor, partial curve, poor fit]
O=c1[nH]c(SCc2ccc(Br)cc2)nc2c1CCCC2 | inactive
Cc1c(OC(C)C(=O)NC(Cc2c[nH]c3ccc(O)cc23)C(=O)O)ccc2c1oc(=O)c1ccccc12 (stereo unspecified) | inconclusive: 26.9 µM [inhibitor, single point]
Cc1ccc(N(Cc2ccccc2)C(=O)c2ccc(S(=O)(=O)N3CCOCC3)cc2)cc1 | inconclusive: 21.3 µM [inhibitor, partial curve, poor fit]
Cc1cccc(OCC(=O)Nc2cc(C)ccc2O)c1 | inconclusive: 37.9 µM [inhibitor, single point]
O=C(NC1CC(=O)N(c2ccc(Cl)cc2)C1)c1cccs1 (stereo unspecified) | inactive
Cc1cc(C)n(-c2nc(SCC(=O)O)c3c4c(sc3n2)CCCC4)n1 | inconclusive: 26.9 µM [inhibitor, single point]
COc1ccc2nc(C)c(C(=O)OCCN(C)C)cc2c1 | inactive
COc1ccc(Cl)c2c1[nH]c1nc(SCc3ccccn3)nnc12 | active: 6.01 µM
CN(c1ccc(C(=O)Nc2ccc(CC#N)cc2)cc1)S(C)(=O)=O | inconclusive: 37.9 µM [inhibitor, partial curve, poor fit]
O=C(CCc1ccc(O)cc1)c1c(O)cc(O)cc1O | inconclusive: 37.9 µM [inhibitor, partial curve, poor fit]
COc1ccc(-c2cc3c(=O)n(CC(=O)NCCCN4CCC(N5CCCCC5)CC4)ncn3n2)cc1 | active: 10.7 µM
Cc1nc2nc(NC(=O)c3ccc(Cl)cc3)[nH]n2c(=O)c1Cc1ccccc1 | inconclusive: 9.53 µM [inhibitor, partial curve]
CCCc1ccccc1OCCNS(=O)(=O)c1cc2c(cc1C)OCC(=O)N2 | inactive
CCc1ccc(NC(=O)CSc2nc(=O)n(Cc3ccco3)c3c2CCC3)cc1 | inconclusive: 37.9 µM [inhibitor, partial curve, poor fit]
Nc1ccc(N=Nc2ccccc2)c2cccnc12 | active: 21.3 µM
Cc1ccccc1NC(=O)N1CCc2ccccc2C1 | inconclusive: 23.9 µM [inhibitor, single point]
Cc1cc(=O)[nH]c(SCC(=O)Nc2ncc(S(=O)(=O)c3ccc([N+](=O)[O-])cc3)s2)n1 | inconclusive: 10.7 µM [inhibitor, partial curve]
CCCCCN(C(=O)CCC(=O)OCC(=O)c1ccc(C(C)(C)C)cc1)c1c(N)n(CCCC)c(=O)[nH]c1=O | inconclusive: 1.51 µM [inhibitor, partial curve]
Cc1ccc(S(=O)(=O)Cn2nnnc2C(C(C)C)N2CCN(c3nc4ccccc4s3)CC2)cc1 (stereo unspecified) | inactive
Cc1c(CCC(=O)O)c(=O)oc2cc(OCc3cccc(F)c3)ccc12 | inconclusive: 37.9 µM [inhibitor, single point]
COc1ccc(Cl)cc1NC(=O)c1nn(C)c2c1CS(=O)(=O)c1ccccc1-2 | inconclusive: 12 µM [inhibitor, partial curve]
COc1ccccc1NS(=O)(=O)c1cccc(NC(=O)c2nc3nc(C)cc(C)n3n2)c1 | inactive
CCOc1cc(-c2nc(-c3ccc(-c4ccc(OC)cc4)nc3OC)no2)cc(OCC)c1OCC | inactive
COc1ccc(-n2cc(C(=O)NCc3cccc(OC)c3)c3ccccc3c2=O)cc1 | inactive

Compound | Potency
CC(C)(C)c1ccc(Oc2ccc(N)cn2)cc1 | inconclusive: 21.3 µM [inhibitor, single point]
COc1cccc2cc(C(=O)c3ccc([N+](=O)[O-])cc3)oc12 | inconclusive: 2.69 µM [inhibitor, full curve]
Cc1ccccc1OCc1nc(-c2ccc(Br)o2)no1 | active: 16.9 µM
O=C1c2sc3nc4n(c(=O)c3c2CCC1Br)CCCCC4 (stereo unspecified) | active: 19 µM
O=C(Cc1ccccc1[N+](=O)[O-])OCc1cccc([N+](=O)[O-])c1 | inconclusive: 37.9 µM [inhibitor, single point]
O=C(COC(=O)CCCSc1nc2ccccc2[nH]1)Nc1ccc(Oc2ccccc2)cc1 | inconclusive: 16.9 µM [inhibitor, partial curve]
C(=C\c1ccccc1)/CSc1ccccn1 | active: 12 µM
CCn1c(NCc2cccc(Cl)c2)nc2ccccc21 | inactive
C=CCNC(=O)/C(C#N)=C/c1ccc(SC)cc1 | active: 12 µM
COc1cccc(C(=O)NC2=NC(c3ccc(N(C)C)cc3)CC(=O)N2)c1 (stereo unspecified) | inconclusive: 26.9 µM [inhibitor, partial curve, poor fit]
COc1cc(-c2nc3ccc(C)cn3c2Nc2ccc(Cl)cc2)ccc1O | inactive
COc1cc(C(=O)NNC(=O)c2cc(-c3ccccc3)n[nH]2)cc(OC)c1C | inconclusive: 26.9 µM [inhibitor, single point]
Cc1[nH]n(-c2ccccc2)c(=O)c1C=Nc1cnc2ccccc2c1 | inactive
Cc1ccc(NC(=O)CN(C)C(=O)/C=C/c2cccs2)cc1 | inactive
CC(O)c1nc2ccccc2n1Cc1nnc(-c2ccc(Cl)cc2)o1 (stereo unspecified) | active: 16.9 µM
Cc1cc(Cl)ccc1OCC(=O)Nc1ccncc1 | active: 15.1 µM
Cc1ncc(CO)c2c1Oc1nc(-c3ccccc3)nc(SCC(=O)N(C)c3ccccc3)c1C2 | inactive
Brc1ccccc1Cn1c(-c2cscn2)nc2ccccc21 | inconclusive: 23.9 µM [inhibitor, single point]
Cc1ccc(S(=O)(=O)Nc2nc(C)c(C(=O)N/N=C/c3ccccc3)s2)cc1 | active: 6.01 µM
CN1C(=O)/C(=C2/C=Cc3ccccc3N2CCCS(=O)(=O)O)SC1=S | inconclusive: 37.9 µM [inhibitor, single point]
O=C(NCc1ccc2c(c1)CCN2C(=O)c1ccncc1)c1ccc(Cl)cc1 | inactive
COc1cccc(-c2nnc3n(Cc4ccccc4Cl)c(=O)c4ccccc4n23)c1O | inactive
Nn1c(COc2ccccc2)nc2ccccc2c1=O | inconclusive: 16.9 µM [inhibitor, partial curve, poor fit]
CCN(c1ccccc1)S(=O)(=O)c1ccc(Cl)c(NC(=O)COC(=O)c2cc(O)c3ccccc3c2O)c1 | inconclusive: 30.1 µM [inhibitor, partial curve, poor fit]
NNC(=O)c1cccc(COCC(F)(F)C(F)F)c1 | inactive
Cc1ccc(NC(=O)c2ccc(OC(=O)COc3cccc(Cl)c3)cc2)cc1 | inconclusive: 7.57 µM [inhibitor, partial curve]

Compound | Potency
CC(=O)NC(=S)Nc1ccc(NC(=S)NC(=O)c2cccs2)cc1 | inactive
Cc1cc(C)nc(NC(=O)c2cccs2)c1 | inconclusive: 37.9 µM [inhibitor, partial curve, poor fit]
O=C(NCc1ccc(N2CCCC2=O)cc1)Nc1cccc(Cl)c1 | inactive
Cn1c(C(=O)NC2CCCCC2)cc2c(=O)n3ccccc3nc21 | inconclusive: 21.3 µM [inhibitor, partial curve, poor fit]
Cc1nc2c(C#N)cnn2c2c1CCN2CC1CCCO1 (stereo unspecified) | inactive
Cc1ccc(NC(=O)CSc2nc3c(c(=O)[nH]2)CCC3)cc1C | inconclusive: 23.9 µM [inhibitor, partial curve, poor fit]
O=C(CSc1nnc(C2CCCCC2)o1)Nc1ccccc1Cl | inconclusive: 19 µM [inhibitor, partial curve, poor fit]
CCOc1ccc(OCc2cccc(C(=O)O)c2)cc1 | active: 0.0169 µM
CC(C)c1ccc(/C=N\NC(=O)c2ccc(Cn3cccn3)o2)cc1 | active: 1.35 µM
CCOC(=O)c1cn2ccc(C)cc2n1 | inconclusive: 26.9 µM [inhibitor, single point]
Oc1ccccc1/C=C/c1noc(-c2ccccc2O)n1 | active: 1.9 µM
CCOc1ccc(-c2nc3scc(-c4cccs4)c3c(=O)[nH]2)cc1 | inactive
Cc1cc(C)n(-c2ccc(C(=O)Nc3nnc(C4CC4)s3)cc2)n1 | inactive
Cc1cccc(N/C=C/C(=O)c2cccs2)c1C | active: 0.338 µM
Cc1ccc(/C(O)=C2/C(=O)C(=O)N(CCN3CCOCC3)C2c2cccs2)cc1 (stereo unspecified) | inconclusive: 33.8 µM [inhibitor, partial curve, poor fit]
COc1ccccc1/C=C1/C(=O)N(c2ccccc2)N=C1C | active: 26.9 µM
O=C(C/C=N/OCc1ccccc1F)c1cnc(-c2ccc(Cl)cc2)s1 | inconclusive: 26.9 µM [inhibitor, partial curve, poor fit]
Nc1nc(NC(=O)CCC(=O)O)nn1-c1ccccc1 | inactive
CC(=O)c1ccccc1NS(C)(=O)=O | inactive
CN1CCN(CCOc2ccc(-c3ccccc3)cc2)CC1 | inconclusive: 23.9 µM [inhibitor, partial curve, poor fit]
Fc1ccc(-c2nnn(Cc3ccc(F)cc3Cl)n2)cc1 | inconclusive: 21.3 µM [inhibitor, partial curve]
Cc1ccc(S(=O)(=O)NCCCN2CCCC2)cc1 | inactive
CC(C)C(=O)Nc1cccc(NC(=S)NC(=O)c2ccccc2Cl)c1 | inconclusive: 37.9 µM [inhibitor, single point]
COc1ccc(NC(=O)c2ccccc2OCc2ccc(F)cc2)c(OC)c1 | inconclusive: 19 µM [inhibitor, partial curve]
